Here are results for two compounds from the CheMixHub viscosity set.

± gives the uncertainty stated by the source. A number of entries come with more than one value. This list holds those alone. The source may hold further records. The records of an entry repeat one measurement (runs, samples, wells, individuals or studies). What stands in brackets tells the records apart. The letters are not those of the source and start again with each entry.

Broadly, the viscosity is the internal friction of a fluid under shear. A high value points to a thick fluid.

Consider `CN(C)c1ccccc1`, for which the viscosity reads like this: (293.15 K, 101 kPa) 1.373 ± 0.029 mPa·s [study A] and 1.405 ± 0.024 mPa·s [study B] and 1.385 ± 0.014 mPa·s [study C] and 1.387 ± 0.014 mPa·s [study D]; (298.15 K, 101 kPa) 1.289 ± 0.027 mPa·s [study A] and 1.302 ± 0.034 mPa·s [study B] and 1.288 ± 0.021 mPa·s [study C] and 1.357 ± 0.023 mPa·s [study D] and 1.288 ± 0.014 mPa·s [study E]; (308.15 K, 101 kPa) 1.09 ± 0.02 mPa·s [study A] and 1.111 ± 0.041 mPa·s [study B] and 1.074 ± 0.023 mPa·s [study C] and 1.011 ± 0.1 mPa·s [study D] and 1.078 ± 0.018 mPa·s [study E] and 1.111 ± 0.016 mPa·s [study F]; (313.15 K, 101 kPa) 1.01 ± 0.02 mPa·s [study A] and 0.988 ± 0.021 mPa·s [study B] and 1.032 ± 0.018 mPa·s [study C] and 0.985 ± 0.016 mPa·s [study D] and 1.024 ± 0.01 mPa·s [study E].
For the compound `C=CC#N`, the viscosity (308.15 K, 101.33 kPa) is 0.309 ± 0.005 mPa·s, 0.309 ± 0.01 mPa·s [study A] and 0.312 ± 0.005 mPa·s, 0.315 ± 0.005 mPa·s [study B].
